Test results as given in a compilation of properties of binary mixtures (doi:10.1021/ie101903t).
The densities may have been worked out from excess volumes.

Assay: xn = mol fraction of the nth substance listed
Details: 101 kPa

CC(C)[C@H](N)C(=O)[O-].CC[n+]1ccn(C)c1 + O
mass density [kg/m3]
Details | 303.15 K | 308.15 K | 313.15 K | 318.15 K | 323.15 K | 328.15 K | 333.15 K
x2 = 0.0902 | 1113.7 | 1110.4 | 1107 | 1104 | – | 1097.9 | 1094.9
x2 = 0.113 | 1114.7 | 1111.5 | 1108 | 1105 | 1101.9 | 1098.9 | –
x2 = 0.1231 | – | 1111.9 | 1108.5 | – | – | 1099.4 | 1096.3
x2 = 0.1425 | 1116.1 | 1113 | 1109.5 | – | 1103.2 | 1100.2 | –
x2 = 0.1657 | 1117.5 | 1114.2 | – | 1107.7 | 1104.6 | 1101.5 | 1098.4
